PubChem BioAssay AID1645882 (National Center for Advancing Translational Sciences (NCATS), 2021)
The whole screen tested about 16,000 compounds, of which about 120 (0.75%) were called active. Roughly 4% stayed inconclusive and do not appear here. The call rests on the fitted dose curve; in most records, active means well fitted inhibition curve with a large enough effect; inconclusive means small, poorly fitted or top-dose-only effect; inactive means no such curve, though single readings can be large or run the other way. This is one part of the list.

Target: Rap guanine nucleotide exchange factor 3 (Homo sapiens) (UniProt O95398)
Chain of UniProt O95398 (O95398 whole entry, looked up): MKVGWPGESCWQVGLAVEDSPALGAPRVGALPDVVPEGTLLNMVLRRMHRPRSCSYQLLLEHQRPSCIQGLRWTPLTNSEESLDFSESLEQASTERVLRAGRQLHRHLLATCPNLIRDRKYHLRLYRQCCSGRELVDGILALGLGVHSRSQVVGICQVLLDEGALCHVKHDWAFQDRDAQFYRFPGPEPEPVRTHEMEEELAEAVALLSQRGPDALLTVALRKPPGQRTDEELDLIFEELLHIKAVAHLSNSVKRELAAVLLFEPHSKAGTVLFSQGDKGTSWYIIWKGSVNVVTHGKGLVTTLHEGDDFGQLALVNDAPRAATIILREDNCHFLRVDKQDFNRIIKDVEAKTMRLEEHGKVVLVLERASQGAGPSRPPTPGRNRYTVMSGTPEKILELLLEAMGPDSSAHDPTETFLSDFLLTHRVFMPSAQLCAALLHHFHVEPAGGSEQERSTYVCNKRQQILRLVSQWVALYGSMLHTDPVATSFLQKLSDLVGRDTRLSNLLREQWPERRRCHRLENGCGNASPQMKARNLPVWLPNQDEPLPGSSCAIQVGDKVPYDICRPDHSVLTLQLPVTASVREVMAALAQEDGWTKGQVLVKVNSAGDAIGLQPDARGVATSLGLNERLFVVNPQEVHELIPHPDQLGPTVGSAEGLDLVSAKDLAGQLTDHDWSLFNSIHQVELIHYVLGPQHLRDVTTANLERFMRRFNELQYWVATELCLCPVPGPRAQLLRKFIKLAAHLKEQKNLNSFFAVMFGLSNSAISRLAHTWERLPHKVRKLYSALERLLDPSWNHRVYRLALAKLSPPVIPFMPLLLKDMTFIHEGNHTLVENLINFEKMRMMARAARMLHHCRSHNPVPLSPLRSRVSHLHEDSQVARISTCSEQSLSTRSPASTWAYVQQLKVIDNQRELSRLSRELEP
Experiment: Validation qHTS for antagonist of cAMP-regulated guanine nucleotide exchange factor 3 (EPAC1); further: nearly all actives have a fitted effect of over 75% in size;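 on activity change, negative = inhibition: plate controls were DMSO for no effect and ATA control for full effect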
Conditions: EPAC1 Rap1B-BODIPY-GDP exchange, fluorescence; series mostly up to 150 µM; activity change, negative = inhibition: at the top concentration
How it was run: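 Nucleotide exchange followed as fluorescence loss when BODIPY-GDP leaves Rap1B (480 nm excitation, 540 nm emission), read at 5 min intervals over 30 min. Reaction: 100 nM EPAC1, 250 nM RAP1B-BODIPY-GDP, 50 uM GDP; ATA and DMSO define normalization.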
Potency means the concentration at half of the fitted maximal effect.

Row | SMILES | activity change, negative = inhibition | Potency
1 | COc1ccccc1-c1nccc(Nc2ccc(F)cc2)n1 | inactive: 3.36% | 
2 | O=C(Nc1cc(C(=O)NC2CCOCC2)c2c(c1)ncn2C1CCCC1)c1ccccc1 | inactive: 3.99% | 
3 | COc1cc(=O)n2c(c1C(=O)N(C)Cc1cscn1)CCN(C(=O)c1ccc(C)cc1C)CC2 | inactive: 7.2% | 
4 | CC(Oc1ccc(O)cc1)(P(=O)(O)O)P(=O)(O)O | inactive: 21.6% | 
5 | COc1cc(=O)n2c(c1C(=O)NCc1ccsc1)CCN(Cc1nc3ccccc3[nH]1)CC2 | inactive: -2.85% | 
6 | Cc1c(Cl)cccc1Nc1ccccc1C(=O)O | inactive: -7.54% | 
7 | COc1ccccc1-c1nc(N(C)Cc2ccco2)c2ccccc2n1 | inactive: -4.32% | 
8 | Cc1cc2c(c(-c3cnccn3)c1)OC(CNC(=O)c1ccc(-n3nc(C)cc3C)cc1)C2 (stereo not given) | inactive: 6.62% | 
9 | CN(C)c1ncc2nc(-c3ccccc3)c(=O)n(C[C@H]3CCCO3)c2n1 | inactive: 19.4% | 
10 | COc1ccc(CNc2ncnc3ccc(-c4ccc(C(=O)N(C)C)cc4)cc23)c(OC)c1 | inactive: -2.24% | 
11 | Brc1c(Br)c(Br)c2[nH]cnc2c1Br | inactive: 10.7% [at 75.8 µM] | 
12 | c1nc(N2CCNCC2)c2cc(-c3ccoc3)ccc2n1 | inactive: 9.71% | 
13 | COC(=O)[C@H]1[C@H]2C[C@@H]3c4[nH]c5cc(OC)ccc5c4CCN3C[C@H]2C[C@H](OC)[C@@H]1OC | inactive: 9.68% | 
14 | COc1ccc(OC)c(-c2ccnc(-n3ncc(C(=O)N(C)CCO)c3C3CC3)n2)c1 | inactive: 15.2% | 
15 | CC(C)(C)c1ccc(/C=C/C(=O)Nc2ccc3c(c2)OCCO3)cc1 | inactive: -2.16% [at 75.8 µM] | 
16 | Cc1c(C(C)C)c(=O)n(-c2ccccc2)n1C | inactive: 9.08% | 
17 | CNC(=O)[C@H]1O[C@@H](n2cnc3c(N)ncnc32)[C@H](O)[C@@H]1O | inactive: 32.5% | 
18 | Cc1ccc(CNc2nc(CN3CCCCC3c3cccnc3)nc3ccccc23)o1 (stereo not given) | inactive: 21.4% | 
19 | CC[n+]1c(/C=C/C=C2/N(C)c3ccccc3C2(C)C)sc2ccccc21 | inactive: 2.32% [at 75.8 µM] | 
20 | CC#CCC(C)[C@H](O)/C=C/[C@@H]1[C@H]2c3cccc(CCCC(=O)O)c3O[C@H]2C[C@H]1O (stereo not given in full) | inactive: 7.01% | 
21 | CNC1C(O)[C@@H]2OC(O[C@@H]3C(O)C(O)C(N)C[C@H]3N)C(N)C[C@H]2O[C@H]1O[C@@H]1OC(CO)C(N)C(O)C1O (stereo not given in full) | inactive: 3.82% | 
22 | c1coc(-c2ccccc2CN2CCOc3ccc(CN4CCOCC4)cc3C2)c1 | inactive: 8.82% | 
23 | Cc1c(C(=O)N2CCCC2)sc2ncnc(NCCc3ccccn3)c12 | inactive: 10.3% | 
24 | O=C1CCN(Cc2cccn2-c2ccccn2)CCN1Cc1ccccc1C(F)(F)F | inactive: 4.28% | 
25 | CNc1ncnc2c1ncn2[C@H]1C[C@H](O)[C@@H](CO)O1 | inactive: 21.3% | 

Row | SMILES | activity change, negative = inhibition | Potency
26 | COc1ccc2[nH]cc(CCNC(=O)C3CC3)c2c1 | inactive: 17.4% | 
27 | C=C[C@@H]1c2cc(C)ccc2N(S(=O)(=O)c2ccc(C)cc2)[C@H](c2ccc(OC(C)=O)cc2)C1(C#N)C#N | inactive: -5.13% | 
28 | COC(=O)CCCC[C@@H]1SC[C@@H]2NC(=O)N[C@@H]21 | inactive: -10.4% | 
29 | COc1cc(OC)c(OC)cc1/C=c1\[nH]c(=O)/c(=C/c2cc(OC)c(OC)cc2OC)[nH]c1=O | inactive: 8.84% | 
30 | Cc1ccc(N(CC2=NCCN2)c2cccc(O)c2)cc1 | inactive | 
31 | O=C(NCC1Cc2cccc(-c3nccs3)c2O1)c1ccnc(Cl)c1 (stereo not given) | inactive: 3.32% | 
32 | O=c1c(-c2cc(F)cc(F)c2)nc2cnc(N3CCOCC3)nc2n1Cc1cccs1 | inactive: 8.61% | 
33 | N[C@H](CCCP(=O)(O)O)C(=O)O | inactive | 
34 | C#CC(N)CCC(=O)O (stereo not given) | inactive: -7.07% [at 75.8 µM] | 
35 | CO[C@H]1C[C@H](O[C@H]2[C@H](C)O[C@@H](O[C@@H]3/C(C)=C/C[C@@H]4C[C@@H](C[C@]5(C=C[C@H](C)[C@@H](C6CCCCC6)O5)O4)OC(=O)[C@@H]4C=C(C)[C@@H](O)[C@H]5OC/C(=C\C=C\[C@@H]3C)[C@]54O)C[C@@H]2OC)O[C@@H](C)[C@@H]1O | inactive: -8.89% | 
36 | O=c1c(-c2ccc(O)cc2)coc2c(C3OC(CO)C(O)C(O)C3O)c(O)ccc12 (stereo not given) | inactive: 2.26% | 
37 | O=S(=O)(O)c1cc(N=C=S)ccc1/C=C/c1ccc(N=C=S)cc1S(=O)(=O)O |  | active: 35.5 µM
38 | COc1ccc(CN2[C@@H](CC(C)=O)c3ccc(/C=C/C(C)=O)cc3S2(=O)=O)cc1 | inactive: 1.11% | 
39 | CN(C)c1ccc(-c2nc(Nc3ccncc3)c3ccccc3n2)cc1 | inactive: 0.782% | 
40 | CCNc1ncc2nc(-c3cccc(C#N)c3)c(=O)n(C)c2n1 | inactive: 13.6% | 
41 | COc1cc2nc(C#Cc3nc4cc(OC)c(OC)cc4[nH]3)[nH]c2cc1OC | inactive: 20.6% | 
42 | CN(C)c1ccc(/C=c2\[nH]c(=O)/c(=C\c3ccc(N(C)C)cc3)[nH]c2=O)cc1 | inactive: 6.23% | 
43 | CC(C)C[C@@H](N)C(=O)O | inactive: 19.9% | 
44 | O=C(Nc1ccc(Cl)cc1)Nc1ccc(Cl)c(Cl)c1 | inactive: -10.1% | 
45 | OCCNCCCOc1cccc(Cl)c1Cl | inactive: -1.75% | 
46 | Cn1c(=O)c(-c2ccc(Cl)cc2)nc2cnc(Oc3ccccc3)nc21 | inactive: -5.32% | 
47 | CCNc1ncc2nc(CCc3ccccc3)c(=O)n(CCC#N)c2n1 | inactive: 14.7% | 
48 | O=C(Nc1cccc(F)c1)N1CC2(CCN(C(=O)c3ccncc3)CC2)C1 | inactive: 17.4% | 
49 | O=C1c2c(O)cccc2Cc2cccc(O)c21 | inactive | 
50 | COc1ccc2[nH]c(=O)c3c(c2c1)OC(C)(C)C=C3 | inactive | 

Row | SMILES | activity change, negative = inhibition | Potency
51 | Cc1noc(C)c1-c1nc(NC2CC2)c2ccccc2n1 | inactive: 14.8% | 
52 | COc1nccc(-c2c(-c3ccc(F)cc3)ncn2C2CCC(O)CC2)n1 (stereo not given) | inactive: -14.2% | 
53 | COCCCCC(=NOCCN)c1ccc(C(F)(F)F)cc1 | inactive | 
54 | c1ncc(-c2ccoc2)c(NC2CC2)n1 | inactive: 11.2% | 
55 | CCNc1ncc2nc(-c3ccc(Cl)cc3)c(=O)n(Cc3cccc(OC)c3)c2n1 | inactive: -10.2% | 
56 | COc1ccccc1C(=O)N[C@@H]1c2ccccc2C2(CCN(Cc3ccc4c(c3)OCO4)CC2)[C@H]1O | inactive: 15.6% | 
57 | CC(=O)[C@]1(O)CCC2C3CC(C)C4=CC(=O)C=CC4(C)[C@@]3(F)C(O)C[C@]21C (stereo not given in full) | inactive: 19.3% | 
58 | CS(=O)(=O)N1CCC2(CC1)CN(c1ccc(-c3ccccc3)cc1)C2 | inactive: 13.7% | 
59 | CCC1CN(CCNC(=O)c2cscn2)Cc2cc(OC)ccc2O1 (stereo not given) | inactive: -6.31% | 
60 | C(=Nc1cnc2ccccc2c1)c1ccc2ccccc2n1 | inactive: 4.41% | 
61 | CC[N+](C)(CC)CCOC(=O)C(O)(c1ccccc1)C1CCCCC1 (stereo not given) | inactive: 22.3% | 
62 | CC1(C)CC(C(=O)N2CCOc3ccc(CN4CCN(Cc5ccccn5)CC4)cc3C2)CCO1 (stereo not given) | inactive: 3.69% | 
63 | CC(C)(CNC(=O)c1cnn(-c2nccc(-c3ccccc3F)n2)c1C1CC1)N1CCOCC1 | inactive: 10.3% | 
64 | COc1cccc(Cn2c(=O)c(-c3cccs3)nc3cnc(N4CCN(C)CC4)nc32)c1 | inactive: 29.4% | 
65 | COc1ccc2c(c1)CCC1C2CC[C@@]2(C)C1CC[C@@H]2NCCCCCCN1C(=O)CCC1=O (stereo not given in full) | inactive: 16.9% [at 75.8 µM] | 
66 | Nc1ccc(/C=C/c2ccc3ncccc3c2)cc1 | inactive: 17% | 
67 | C[C@@H]1CN(Cc2ccc3c(c2)CN(C(=O)c2ccc(Oc4ccccc4)o2)CCO3)C[C@H](C)O1 | inactive: 9.99% | 
68 | O=C(O)C[C@H]1c2ccc(C(F)(F)F)cc2S(=O)(=O)N1Cc1ccccc1 | inactive: -16.3% | 
69 | Cc1ccc(C(C)(C)c2ccc(C)cc2)cc1 | inactive: 16.1% | 
70 | COc1ccc(Oc2ncc3nc(-c4ccccc4)c(=O)n(Cc4cccs4)c3n2)cc1 | inactive: 12.3% | 
71 | COc1ccc(-n2c(=O)c(-c3cc(F)cc(F)c3)nc3cnc(N(C)C)nc32)cc1 | inactive: 56.3% | 
72 | COc1cc(C(=O)OCCCN2CCCN(CCCOC(=O)c3cc(OC)c(OC)c(OC)c3)CC2)cc(OC)c1OC | inactive | 
73 | COC(=O)C1=C(C)NC(C)=C([N+](=O)[O-])C1c1ccccc1C(F)(F)F (stereo not given) | inactive | 
74 | CC(C)c1c(C(=O)N(C)Cc2cccc3ncccc23)cnn1-c1nccc(-c2ccco2)n1 | inactive: 9.13% | 
75 | Nc1c(CC(=O)O)cccc1C(=O)c1ccccc1 | inactive | 

Row | SMILES | activity change, negative = inhibition | Potency
76 | O=Cc1ccccc1C=O | inactive: -2.01% | 
77 | O=C(NCc1cccnc1)[C@@H]1CC=C[C@@H]2CCN(C3CCCCC3)C(=O)[C@@H]21 | inactive: 15.2% | 
78 | Cc1nc2cnc(N(C)C)nc2n(Cc2cccs2)c1=O | inactive: 11.5% | 
79 | COc1cc(=O)n2c(c1C(=O)N(C)Cc1nonc1C)CCN(Cc1cc(F)ccc1F)CC2 | inactive: 10.1% | 
80 | CN(C)CCCN1c2ccccc2Sc2ccc(C(F)(F)F)cc21 | inactive | 
81 | O=c1cnc2cnc(N3CCOCC3)nc2n1Cc1cccs1 | inactive: 16.1% | 
82 | CC1=C(CCC(=O)O)c2cc3nc(cc4[nH]c(cc5[nH]c(cc1n2)c(C)c5C(C)O)c(C)c4C(C)O)C(C)=C3CCC(=O)O (stereo not given) | inactive: -9.54% | 
83 | CCCOC(=O)c1ccccc1 | inactive: 7.24% | 
84 | COc1cc(=O)n2c(c1C(=O)NCc1ccco1)CCN(C(=O)c1ccc(C)c(C)c1)CC2 | inactive: 15.5% | 
85 | Cc1noc(C)c1-c1ccc2ncnc(NC3CC3)c2c1 | inactive: 31.1% | 
86 | COc1ccc([C@@H]2CC(=O)c3c(O)cc(O)cc3O2)cc1O | inactive: 14.1% | 
87 | CC/C=C\C[C@H]1C(=O)CC[C@@H]1CC(=O)O | inactive: 7.6% | 
88 | Oc1ccccc1 | inactive: 24.5% | 
89 | CCCCOCCOCCOCc1cc2c(cc1CCC)OCO2 | inactive | 
90 | CCN(CC)CCOC(=O)C1(C2CCCCC2)CCCCC1 | inactive | 
91 | COc1ccc(Oc2ncc3nc(-c4ccc(Cl)cc4)c(=O)n(C4CC4)c3n2)cc1 | inactive: 11.9% | 
92 | O=C1CC(c2ccccc2O)Oc2ccc(O)cc21 (stereo not given) | inactive: -13.5% | 
93 | C#C[C@]1(O)CC[C@H]2[C@@H]3CCC4=C/C(=N/O)CC[C@@H]4[C@H]3CC[C@@]21CC | inactive: 1.07% | 
94 | CN(C)Cc1ccccc1-c1ccc2ncnc(NC3CCNCC3)c2c1 | inactive: 17.1% | 
95 | CC(C)CN1CC[C@@]2(CCCN(C(=O)c3cccc(F)c3)C2)C1 | inactive: 0.054% | 
96 | COCCN(C)C(=O)c1cnn(-c2ncc3c(n2)-c2ccccc2CC3)c1C | inactive: 13.3% | 
97 | CCCCC(O)c1ccccc1 (stereo not given) | inactive: 21.4% | 
98 | CC(=O)OC1CCC2(C)C3CCC4(C)C(CC5CCCCC54C(C)=O)C3CC(=O)[C@@]2(O)C1 (stereo not given in full) | inactive: -8.8% | 
99 | COc1cccc(-c2nc(NCCc3c[nH]c4ccc(OC)cc34)c3ccccc3n2)c1 | inactive: -6.68% | 
100 | CCC(=O)OCC(=O)[C@@]1(OC(=O)CC)[C@@H](C)C[C@@H]2[C@H]3CCC4=CC(=O)C=C[C@]4(C)[C@@]3(F)[C@@H](O)C[C@@]21C | inactive: 9.3% | 
